Experimental data: article PMC7679444
Results are given in words; binding and its absence hold for the method and conditions named. In cells and extracts the contact can be indirect. Some results given as binding are weak or reduced against the parent protein; the word gives no strength.

By UniProt entry, the sequences of proteins in these tests, tags left out. Where a name states a change or a piece, a line headed by the entry shows the natural chain unless it says otherwise. Residues count along the entry.
UniProt Q08334, residues 20-325: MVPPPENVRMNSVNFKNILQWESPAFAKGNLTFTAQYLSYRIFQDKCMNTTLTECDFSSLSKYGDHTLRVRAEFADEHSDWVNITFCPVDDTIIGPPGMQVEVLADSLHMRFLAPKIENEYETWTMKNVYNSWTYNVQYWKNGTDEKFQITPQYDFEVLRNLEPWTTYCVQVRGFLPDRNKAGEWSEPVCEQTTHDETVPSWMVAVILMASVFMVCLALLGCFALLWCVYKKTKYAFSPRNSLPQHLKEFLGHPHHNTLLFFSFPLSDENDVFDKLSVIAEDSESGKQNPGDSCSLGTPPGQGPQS
UniProt Q676U5: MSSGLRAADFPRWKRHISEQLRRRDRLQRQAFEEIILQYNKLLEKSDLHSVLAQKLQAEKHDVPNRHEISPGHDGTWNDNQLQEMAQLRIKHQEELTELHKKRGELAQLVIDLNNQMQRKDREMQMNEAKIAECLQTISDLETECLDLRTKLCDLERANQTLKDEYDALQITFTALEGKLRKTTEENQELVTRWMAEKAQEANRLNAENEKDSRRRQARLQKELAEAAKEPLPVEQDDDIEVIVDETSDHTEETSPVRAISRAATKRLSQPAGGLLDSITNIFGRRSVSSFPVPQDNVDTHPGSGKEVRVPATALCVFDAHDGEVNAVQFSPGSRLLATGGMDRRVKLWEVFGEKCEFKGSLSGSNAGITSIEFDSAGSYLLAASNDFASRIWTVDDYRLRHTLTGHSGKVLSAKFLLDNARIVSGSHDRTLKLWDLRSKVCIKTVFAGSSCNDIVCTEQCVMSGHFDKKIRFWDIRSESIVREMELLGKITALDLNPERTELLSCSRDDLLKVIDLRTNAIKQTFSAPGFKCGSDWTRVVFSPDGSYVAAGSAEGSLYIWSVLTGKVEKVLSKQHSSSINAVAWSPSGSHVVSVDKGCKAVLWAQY
GST-ΔWDD (ATG16L1 1–319): residues 1-319 of Q676U5
GST-WDD (ATG16L1 320–607): residues 320-607 of Q676U5
UniProt Q01638, residues 19-556: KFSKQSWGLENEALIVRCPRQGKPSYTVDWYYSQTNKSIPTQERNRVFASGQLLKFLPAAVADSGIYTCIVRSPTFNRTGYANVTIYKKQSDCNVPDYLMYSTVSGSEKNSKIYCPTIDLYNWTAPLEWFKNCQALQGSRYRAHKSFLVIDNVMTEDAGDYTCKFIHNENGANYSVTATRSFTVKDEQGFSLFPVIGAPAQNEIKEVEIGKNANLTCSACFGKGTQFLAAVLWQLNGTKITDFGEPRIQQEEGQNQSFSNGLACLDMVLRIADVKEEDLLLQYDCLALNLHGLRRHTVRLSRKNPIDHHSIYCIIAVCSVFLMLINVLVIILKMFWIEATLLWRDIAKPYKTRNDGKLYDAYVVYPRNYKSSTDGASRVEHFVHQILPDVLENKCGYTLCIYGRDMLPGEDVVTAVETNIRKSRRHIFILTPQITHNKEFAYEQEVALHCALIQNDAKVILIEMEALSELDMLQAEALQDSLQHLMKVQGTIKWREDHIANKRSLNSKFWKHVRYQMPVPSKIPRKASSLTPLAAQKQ

Assays:
[1] = target: IL-10RB-Flag in engineered MEFs (human) (UniProt Q08334); test: co-IP; engineered Atg16l1−/− MEFs (FL or Nt ATG16L1, IL-10RA-AU, IL-10RB-Flag) untreated or treated with IL-10, with or without E64d/pepstatin (10 μg/ml each) for 30 min; anti-Flag immunoprecipitation, Western blot
[2] = target: GST-WDD (ATG16L1 320–607) (human) (UniProt Q676U5); test: co-IP; HEK-293T co-transfected with tagged receptor and GST-fused ATG16L1 fragment, lysed 36 h later (1% Igepal CA-630, diluted to 0,2%), GST precipitated with GSH-agarose beads, Western blot
[3] = target: GST-ΔWDD (ATG16L1 1–319) (human) (UniProt Q676U5); test: as above
[4] = target: full-length ATG16L1 (human) (UniProt Q676U5); test: co-IP; wild-type or motif-mutated receptors with full-length ATG16L1 (Supplementary Fig. 4a, b; not shown)
[5] = target: full-length ATG16L1 (human) (UniProt Q676U5); test: co-IP; additional co-immunoprecipitation studies performed in different conditions (Supplementary Fig. 3a, b; not shown)

| binding [1] | binding [2] | binding [3] | binding [4] | binding [5] | Substance |
| --- | --- | --- | --- | --- | --- |
| no binding | – | – | – | – | ATG16L1 N-terminal domain (Nt, 1–299) in restored Atg16l1−/− MEFs (from UniProt Q676U5 1-299) (domain or fragment) |
| binds | – | – | – | – | FL-ATG16L1 in restored Atg16l1−/− MEFs (from UniProt Q676U5 1-607) |
| – | binds | no binding | – | – | IL-33R (IL-1RL1; ST2), tagged (from UniProt Q01638 19-556) (receptor) |
| – | binds | no binding | binds | binds | IL-10RB, wild type, tagged (from UniProt Q08334 20-325) (receptor) |
